Assay results: PubChem BioAssay AID1619 (SRMLSC, 2009)
The campaign covered roughly 220,000 compounds. About 830 (0.38%) were called active. This list was built around the results that the source calls inconclusive (neither active nor inactive); the mix of calls is not that of the screen.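 Rule for the calls: active = compound inhibiting the enzyme by more than half at any dose during confirmatory dose-response retesting; inconclusive = strong single-dose inhibitors picked by rank but not retested; inactive = the rest.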

molecular target: Leucine aminopeptidase (Plasmodium falciparum (isolate 3D7)) (UniProt Q8IL11); assay: P. falciparum M17LAP inhibitors, primary screen, biochemical, fluorogenic H-Leu-NHMec substrate, 1536-well (AID 1619); conditions: recombinant M17LAP, H-Leu-NHMec fluorogenic kinetic assay; at 30 µM; stronger effect = higher value;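 note: plate controls were full reaction with DMSO carrier for no effect and no enzyme background for full effect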
Chain of UniProt Q8IL11 (Q8IL11 whole entry, looked up): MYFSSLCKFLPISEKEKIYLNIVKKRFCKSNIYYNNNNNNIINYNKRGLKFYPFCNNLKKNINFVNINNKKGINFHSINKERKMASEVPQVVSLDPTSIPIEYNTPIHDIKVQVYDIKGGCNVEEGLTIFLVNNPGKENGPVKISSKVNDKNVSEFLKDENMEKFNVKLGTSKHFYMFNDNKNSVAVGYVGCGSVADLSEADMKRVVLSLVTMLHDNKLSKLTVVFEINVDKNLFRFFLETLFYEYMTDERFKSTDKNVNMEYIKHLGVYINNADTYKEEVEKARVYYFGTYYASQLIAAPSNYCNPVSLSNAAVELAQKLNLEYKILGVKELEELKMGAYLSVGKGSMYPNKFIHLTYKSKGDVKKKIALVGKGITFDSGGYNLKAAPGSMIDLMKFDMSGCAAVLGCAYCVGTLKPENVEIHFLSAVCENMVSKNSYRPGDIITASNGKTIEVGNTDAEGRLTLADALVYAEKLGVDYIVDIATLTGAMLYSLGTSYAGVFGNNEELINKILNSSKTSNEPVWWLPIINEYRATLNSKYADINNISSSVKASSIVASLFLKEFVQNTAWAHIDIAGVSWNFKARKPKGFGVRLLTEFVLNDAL

SMILES | inhibition
C/C(=N\NC(N)=S)C1(C)CC2(CC(C)(C)OC2=O)C(=O)O1 (stereo not drawn) | inactive: -1.04%
CCc1nnc(NS(=O)(=O)c2ccc(N=Cc3c(C)[nH]n(-c4ccc(Cl)cc4)c3=O)cc2)s1 | inactive: 45.4%
O=C(O)c1cc(N2N=C(C(F)(F)F)/C(=C/C=C/c3ccco3)C2=O)ccc1Cl | inconclusive: 62.4%
C=CCNC(=S)Nc1cccc(N)c1 | inactive: 2.22%
CCOc1ccc(-n2c(=S)sc3c(=O)[nH]c(SCC(=O)NCc4ccco4)nc32)cc1 | inconclusive: 62.2%
CC1CN(C(=O)N2CCOCC2)CCN1C(=O)N1CCOCC1 (stereo not drawn) | inactive: -0.08%
Cc1cccc(NC(=O)CCCn2cc([N+](=O)[O-])cn2)n1 | inactive: -2.41%
C/C(C/C(C)=C1/SC(=S)NC1=O)=C1\SC(=S)NC1=O | inconclusive: 91%
COc1c(O)cc2oc(-c3ccc(O)c(O)c3)cc(=O)c2c1O | inconclusive: 83.1%
O=C(O)C(Cc1ccccc1)N1C(=O)/C(=C/C=C/c2ccco2)SC1=S (stereo not drawn) | inconclusive: 65%
O=C(O)c1cccc(CN2C(=O)SC(Nc3cccc4ccccc34)C2=O)c1 (stereo not drawn) | inconclusive: 64.5%
COc1ccccc1N1C(=O)CC(Sc2n[nH]c(-c3cccc(C)c3)n2)C1=O (stereo not drawn) | inconclusive: 88.9%
CNCC(=O)Nc1ccc(Cl)c(C(F)(F)F)c1 | inactive: -1.94%
O=C(CN1CCN(Cc2ccccc2)CC1)c1ccc(Br)cc1 | inconclusive: 63.7%
COC(=O)c1ccc(COc2ccccc2/C=N/Nc2cccc(C(=O)O)c2)cc1 | inconclusive: 60.7%
O=C(O)C1CC=CCC1C(=O)Nc1cccc(Cl)c1Cl (stereo not drawn) | inconclusive: 93.6%
Cc1nn(-c2cccc(C(F)(F)F)c2)c(Cl)c1/C=N/Nc1cccc(C(=O)O)c1 | inconclusive: 56.8%
Cc1ccccc1C1C2=C(Nc3[nH]n(-c4ccccc4)c(=O)c31)c1ccccc1C2=O (stereo not drawn) | inconclusive: 77.1%
CCc1nnc(NS(=O)(=O)c2ccc(N/C=C\C(=O)c3cccc(OC)c3)cc2)s1 | inconclusive: 78.1%
CC(C(=O)O)N1C(=O)/C(=C/c2cccn2C)SC1=S (stereo not drawn) | inconclusive: 59%
CCN(CC)c1ccc(/C=C2\C(=O)c3ccc(C(=O)O)cc3C2=O)cc1 | inconclusive: 82.3%
CCN(CC)c1ccc(/C=C2/C(=O)c3ccc(C(=O)O)cc3C2=O)cc1 | inconclusive: 99.7%
CC(=O)N1CCC2(CC1)C(C#N)=C(N)Oc1n[nH]c(C(F)(F)F)c12 | inactive: -15.9%
CC(=O)c1ccccc1OCCn1nnc(-c2ccc(C)cc2)n1 | inactive: 12.1%

SMILES | inhibition
Cc1ccc(S(=O)(=O)/N=C2/NC(=O)/C(=C/c3ccccc3)S2)cc1 | inconclusive: 83.1%
COc1ccc2sc(/C=C/c3ccccc3O)[n+](C)c2c1 | inconclusive: 91.7%
O=C(O)c1ccccc1Nc1ccc(OC(F)F)cc1 | inactive: 18.9%
CCSc1ccccc1C(=O)Nc1nncs1 | inconclusive: 60.3%
O=C1c2[nH]nc(-c3ccccc3O)c2C(c2ccccc2F)N1Cc1ccco1 (stereo not drawn) | inactive: 16%
CC(C)C[C@@H]1NC(=O)[C@H](CO)NC(=O)c2cc([N+](=O)[O-])cc(I)c2OCC[C@@H](C(N)=O)NC1=O | inconclusive: 61.8%
COc1ccc(-c2ccc(C(c3c(C)[nH][nH]c3=O)c3c(C)[nH][nH]c3=O)o2)c([N+](=O)[O-])c1 | inconclusive: 66.3%
C=CCn1c(-c2ccc(OC)c(OC)c2)n[nH]c1=S | inactive: 13.8%
Cc1ccc(NC(=O)CN2C(=O)S/C(=C/c3ccc(-c4cc(C(=O)O)ccc4C)o3)C2=O)cc1C | inconclusive: 59.2%
CCC(CO)[n+]1c(C)cc(/C=C2\Sc3ccccc3N2Cc2ccccc2)cc1C (stereo not drawn) | inconclusive: 65%
Cc1cccnc1CN1CCN(C(=O)c2cc(COc3ccc4ncccc4c3)on2)CC1 | inactive: 0.97%
COc1ccccc1Nc1nc2ccc(C)cc2cc1C#N | inactive: 5.31%
O=C(O)c1cccc(-n2cccc2/C=C2/NC(=O)N(c3ccc(Cl)cc3)C2=O)c1 | inconclusive: 57.5%
CCc1nnc(NC(=O)CSc2nnc(-c3ccccc3O)n2-c2ccc(C)cc2C)s1 | inconclusive: 67.2%
Cc1ccc(NC(=O)CN2C(=O)S/C(=C\c3ccc(-c4cccc(C(=O)O)c4C)o3)C2=O)cc1C | inconclusive: 103%
NC1=NC(=O)/C(=C\c2ccco2)S1 | inactive: 25.9%
O=C(O)Cc1ccc(NC(=O)C2CC=CCC2C(=O)O)cc1 (stereo not drawn) | inactive: 11.1%
Cc1cc(C(F)(F)F)n2nc(-c3cnn(C)c3C(F)(F)F)c(Br)c2n1 | inactive: 4.73%
O=C(O)c1ccc(COc2ccc3ccccc3c2/C=C2/NC(=O)N(Cc3ccc(F)cc3)C2=O)cc1 | inconclusive: 82.6%
S=c1[nH]nc(-c2ccccc2)n1/N=C/C=C/c1ccco1 | inconclusive: 66%
CCOC(=O)c1sc(=S)n(-c2ccccc2)c1N | inactive: 6.93%
O=C(NC1CCCC1)C1C2C=CC3(CN(Cc4cccs4)C(=O)C13)O2 (stereo not drawn) | inactive: -3.35%
Cc1cccc(NC(=O)c2cc(NC(=O)C3CCCCC3C(=O)O)ccc2N2CCCCC2)c1 (stereo not drawn) | inconclusive: 64.9%
CCOC(=O)N1CCC2(CC1)C(C#N)=C(N)Oc1n[nH]c(CSc3ccc(C)cc3)c12 | inconclusive: 59.1%
